In article PMC4336329 (PLoS ONE, 2015):
About 14,000 (4.5%) of roughly 310,000 compounds showed an effect of 50% or more. The effect is printed as a negative number. The list shows a part of the results.

What follows are molecules tested against human ether-à-go-go-related gene (hERG) potassium channel (human, UniProt Q12809) (assay: primary screen, population patch clamp on CHO cells stably expressing hERG).
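Also: peak tail current of the secondary pulse compared with the same well before compound.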

human ether-à-go-go-related gene (hERG) potassium channel, sequence (Q12809 whole entry, looked up): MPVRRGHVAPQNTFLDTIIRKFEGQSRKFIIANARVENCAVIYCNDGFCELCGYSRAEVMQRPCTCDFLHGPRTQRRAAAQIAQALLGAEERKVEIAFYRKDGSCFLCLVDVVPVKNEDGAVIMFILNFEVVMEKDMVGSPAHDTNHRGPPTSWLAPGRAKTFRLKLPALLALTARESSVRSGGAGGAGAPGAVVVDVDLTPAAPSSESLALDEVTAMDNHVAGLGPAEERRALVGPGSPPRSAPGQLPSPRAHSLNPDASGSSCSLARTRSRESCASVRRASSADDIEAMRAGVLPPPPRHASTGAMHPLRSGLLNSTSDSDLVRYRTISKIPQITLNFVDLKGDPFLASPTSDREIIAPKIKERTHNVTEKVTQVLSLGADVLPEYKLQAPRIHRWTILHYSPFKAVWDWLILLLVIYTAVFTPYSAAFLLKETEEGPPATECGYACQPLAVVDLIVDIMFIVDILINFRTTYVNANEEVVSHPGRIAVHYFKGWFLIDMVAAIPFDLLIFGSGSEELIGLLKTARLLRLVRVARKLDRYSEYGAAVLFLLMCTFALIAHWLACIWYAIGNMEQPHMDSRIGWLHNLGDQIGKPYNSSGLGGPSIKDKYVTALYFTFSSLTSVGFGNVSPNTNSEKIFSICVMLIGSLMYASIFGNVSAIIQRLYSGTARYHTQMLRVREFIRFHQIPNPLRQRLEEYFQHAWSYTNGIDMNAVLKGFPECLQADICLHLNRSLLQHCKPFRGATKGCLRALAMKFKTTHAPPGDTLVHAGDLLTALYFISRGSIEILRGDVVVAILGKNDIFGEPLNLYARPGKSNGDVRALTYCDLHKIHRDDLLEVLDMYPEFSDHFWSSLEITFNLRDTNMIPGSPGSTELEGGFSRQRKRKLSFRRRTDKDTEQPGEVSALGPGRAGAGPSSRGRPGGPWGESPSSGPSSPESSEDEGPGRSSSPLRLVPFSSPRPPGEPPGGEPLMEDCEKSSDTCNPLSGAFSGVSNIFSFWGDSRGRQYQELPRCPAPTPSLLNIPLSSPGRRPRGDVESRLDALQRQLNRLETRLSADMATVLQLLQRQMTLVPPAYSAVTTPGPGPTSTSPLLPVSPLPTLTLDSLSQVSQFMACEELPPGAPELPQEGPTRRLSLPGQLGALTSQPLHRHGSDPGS

SMILES | hERG current change (%, negative = inhibition) at 10uM
O=C(c1ccc(-c2ccccc2)cc1)N1CCN(c2ccccc2F)CC1 | 7.96%
CCCn1c(SCC(=O)c2cc(C)n(C3CC3)c2C)n[nH]c1=O | -6.45%
O=C(CSCSCC(=O)Nc1ccc2c(c1)OCO2)Nc1ccc2c(c1)OCO2 | -2.21%
O=S(=O)(NCCOc1ccccc1Cl)c1ccc2oc3ccccc3c2c1 | 3.52%
COc1ccc(NC(=O)COC(=O)Cc2c[nH]c3ccccc23)cc1OC | 11.2%
O=C(CSc1nnc2c(n1)[nH]c1ccc(F)cc12)OCc1ccccc1 | 20.7%
CCCc1cc(C(=O)N2CCN(S(=O)(=O)c3ccc(OC)c(OC)c3)CC2)cs1 | -26.8%
O=C(O)C(=O)O.c1ccc2cc(OCCCn3ccnc3)ccc2c1 | -6.69%
Cc1cc(C)n(-c2ccc(C(=O)Nc3ccc(S(=O)(=O)N(C)C)cc3)cc2)n1 | -40.8%
Nn1c(SCc2cccc(F)c2)nnc1-c1ccncc1 | -4.03%
COC(=O)c1ccc(CSc2nnc3ccccn23)o1 | 6.81%
Cc1cc(C)c2nc(-n3nc(C)cc3N)cc(C)c2c1 | 20%
CC#CCN1c2ccccc2[C@]23C[C@@H](C(=O)OC)N(C(=O)c4cc(C)oc4C)C2=NC(C(=O)OC)=C(C(=O)OC)[C@H]13 | -6.24%
COc1ccc(S(=O)(=O)NCC2CCCN(C(=O)CCSC)C2)cc1 (stereo not drawn) | 18%
CCn1c2ccccc2c2cc(N)ccc21 | 4.52%
O/N=C(\c1ccccc1)C(O)c1ccccc1 (stereo not drawn) | -18.4%
COc1ccc(Cl)cc1N1C(=O)C2CCCN2C1c1ccc(F)cc1 (stereo not drawn) | -2.02%
CCOC(=O)c1sc(=NC(=O)c2ccccc2)n(C)c1C | 13.7%
COc1ccc(OCC(=O)NCCS(=O)(=O)N2CCN(c3ccc(F)cc3)CC2)cc1 | -8.69%
Cn1c(-c2ccc([N+](=O)[O-])cc2)nc2ccccc21 | -1.03%
CCC(C)(C)C1CCC2(CC1)NC(=O)N(CC(=O)Nc1nc(-c3ccc(C)cc3)cs1)C2=O (stereo not drawn) | 24.1%
NC(N)=Nc1nc2ccccc2o1 | 17.8%
Br.C/C(CC1CC(COCC(C)C)OC1=O)=N\Nc1nc(-c2ccccc2)cs1 (stereo not drawn) | -15.5%

SMILES | hERG current change (%, negative = inhibition) at 10uM
CC(=O)N1CCc2c(sc3c2c(=O)n(-c2ccccc2)c(=O)n3Cc2ccccc2Cl)C1 | -24.2%
N#Cc1c2n(c3c(=O)[nH]cnc13)CCCC2 | 15%
O=c1cc(C(F)F)oc2c1ccc1ccccc12 | -1.55%
CCN(CC)c1ccc2c(c1)oc(=O)c1c(Cl)cc(=O)oc12 | 14.8%
Cc1ccc2c(c1)c(-c1ccccc1)nc1nnnn12 | -10.5%
CCN1C(=O)[C@H]2[C@@H](c3ccc(-c4ccc(F)cc4)cc3)N[C@@](CC(C)C)(C(=O)OC)[C@H]2C1=O.O=C(O)C(F)(F)F | 0.854%
Cc1nnc(Sc2c(N)n(C)c(=O)[nH]c2=O)s1 | -8.89%
CCOC(=O)C(=Cc1ccc(-n2ccnc2)cc1)C(=O)OCC | -30.8%
CC(C)c1nnc(NC(=O)CC(C)c2ccccc2)s1 (stereo not drawn) | 1.39%
CCOC(=O)CNc1nc(-c2ccncc2)nc2ccccc12 | 4.79%
CCOC(=O)C(CC(=O)O)NCc1ccco1 (stereo not drawn) | 17.4%
CCCSc1nnc(N)s1 | 24.6%
Cc1ccc(CN(C)CC(=O)Nc2ccc3c(c2)CCC3)cc1 | 20.3%
Cc1ccc(S(=O)(=O)N2CCOCC2)cc1NC(=O)COC(=O)c1ccc2c(c1)OCCO2 | 6.92%
CC(C)NC(=O)c1ccccc1NC(=O)C(C)Oc1ccccc1 (stereo not drawn) | 0.199%
O=C(Cc1ccccc1)NCCSCc1ccccc1 | -8.81%
COc1ccc(OC)c(NC(=O)CSc2nc3[nH]c(=O)cc(O)c3s2)c1 | 22.9%
Cc1c(O)nc(SCC(=O)Nc2cccc(C(F)(F)F)c2)n(-c2ccccc2)c1=O | 30.2%
O=C(c1cc(COc2ccc3c(c2)CCCC3)on1)N1CCCC1 | -10.1%
CCC1=C(OC(=O)N(CC)CC)N2C(=O)OC(=NCCOC)[C@]2(Cc2ccccc2)[C@H]2C1=CC[C@H]1C(=O)NC(=O)[C@H]12 | 7.92%
COCCn1cnc2c1c(=O)n(CC#N)c(=O)n2Cc1ccccc1 | 12.5%
CCC1Oc2ccc(C)cc2N(CC(=O)NCc2ccccc2OC)C1=O (stereo not drawn) | -0.876%
COCC(=O)n1nc(-c2ccccc2)nc1NCc1ccc(N(C)C)cc1 | 24.3%

SMILES | hERG current change (%, negative = inhibition) at 10uM
COc1ccccc1N1CCN(CCCCOc2c(OC)cccc2OC)CC1.O=C(O)C(=O)O | -57.9%
COc1cc(OC)c(CN2CCCN(C)CC2)cc1Br | 18.1%
O=C(COc1ccccc1)Nc1nnc(-c2ccc(Cl)cc2)o1 | 1.95%
CCCCN(C)CCC(=O)Nc1ccc(OC)cc1OC | 5.11%
Cc1ccc(S(=O)(=O)/N=C(\c2ccccc2)N(C)S(=O)(=O)c2ccc(C)cc2)cc1 | 16.6%
CCOC(=O)N/N=C/c1ccc(N(CC)CC)cc1O | -4.68%
O=C(C1CCN(S(=O)(=O)c2cccs2)CC1)N1CCN(c2ccccc2O)CC1 | -22.8%
COc1ccc(NC(=O)/C=C/c2ccco2)cn1 | 9.17%
O=C(c1ccccc1)N1CCC(O)(c2cccnc2)CC1 | 16.1%
CCCN(C(=O)c1nc2nc(C)cc(C)n2n1)c1c(N)n(Cc2ccccc2)c(=O)[nH]c1=O | 6.44%
Cc1ccc(C(=O)NC2CCCc3ccccc32)cc1[N+](=O)[O-] (stereo not drawn) | -16%
CCOc1ccccc1NC(=O)CN1C(=O)C(=O)N(Cc2ccco2)C1=O | 8.17%
O=C(Nc1ccc(OC(F)(F)C(F)F)c(NC(=O)c2ccc(F)cc2)c1)c1ccc(F)cc1 | 14.6%
CN(C(=O)Cc1ccccc1)n1cnnc1 | 11.9%
Cc1ccc(C)c(NC(=S)N2CCCCC2CO)c1 (stereo not drawn) | 15.9%
O=C(NCc1ccccc1)/C(=C\c1ccccc1)NC(=O)c1ccco1 | -21.7%
O=C(CNC(=O)c1ccc(Cl)cc1)OCC(=O)N1CCCC1 | 16.7%
O=C(CSc1nc2cc(Cl)ccc2s1)c1cc2ccccc2o1 | 17.8%
CCOC(=O)C1=C(C)N=c2s/c(=C/c3ccc(OCC(=O)O)c(OC)c3)c(=O)n2C1c1ccc(Cl)cc1 (stereo not drawn) | 3.29%
COc1ccc(N2C(=O)CC(N(CCc3ccccc3)C(=O)c3ccccc3)C2=O)cc1 (stereo not drawn) | -24.5%
CC1CC(C(F)(F)F)n2ncnc2N1 (stereo not drawn) | -1.96%
COCCCN(C(=S)Nc1c(C)cc(C)cc1C)C(C)c1ccccn1 (stereo not drawn) | 1.09%
CCOC(=O)c1nc2ccccc2s1 | 0.709%

SMILES | hERG current change (%, negative = inhibition) at 10uM
Cn1c(N)c(C(=O)c2ccc(F)cc2F)c(=O)n(C)c1=O | 16%
O=C(NCc1ccco1)C(c1ccco1)N(Cc1cccs1)C(=O)Cn1nnc2ccccc21 (stereo not drawn) | 10.3%
COCCNC(=S)N(CCc1c(C)[nH]c2ccc(OC)cc12)Cc1cccnc1 | -3.46%
CCCC(CCC)c1nnc(NC(=O)c2ccco2)s1 | -17%
Cn1ccc(C(=O)OCC(=O)Nc2cccc3ccccc23)n1 | 65%
Cc1c(Cc2ccccc2)c(=O)oc2cc(O)cc(O)c12 | 9.65%
COc1ccc(C(C)(C)C)cc1NC(=O)CCCN1C(=O)NC(C)(C)C1=O | -5.94%
COc1ccc(OC2CCN(C(=O)Nc3ccc(C)cc3)CC2)cc1 | -11.3%
CCOc1ccc(NC(=O)C(C)N2C(=O)c3ccccc3S2(=O)=O)cc1 (stereo not drawn) | 2.37%
CCCOC(=O)c1c(NC(=O)C2CCCO2)sc(C(=O)OC)c1C (stereo not drawn) | 5.12%
CCN(CC)CC(=O)NCC1(c2ccccc2)CCCC1 | -0.324%
CSCCC(NS(=O)(=O)c1ccc(Br)cc1)C(=O)OCC(=O)NC1CC1 (stereo not drawn) | -6.42%
C=CCOC(=O)C(=O)/C=C/c1ccc2c(c1)Cc1ccccc1-2 | 2.11%
O=C(CSc1ccc(Cl)cc1)c1ccco1 | 8.93%
COc1ccccc1-c1nnc(NC(=O)C2=COCCO2)o1 | 14.3%
Cc1ccc2nc(Nc3ccccc3)cc(C)c2c1 | -8.52%
O=[N+]([O-])c1ccc(N=Cc2ccc(Br)c([N+](=O)[O-])c2)cc1 | -3.59%
COc1ccc(N(CC(=O)NCC(C)C)S(=O)(=O)c2ccccc2)cc1 | 13.8%
Clc1ccc2oc3c(Cl)ncnc3c2c1 | 6.89%
CC(C)c1nnc(NC(=O)CCC(=O)N2CCN(c3ccc(Cl)cc3)CC2)s1 | -18.3%
COc1cc(NC(=O)c2cccs2)c(C(=O)OCC(=O)NCc2ccco2)cc1OC | 0.185%
